# According to article PMC4336329 (PLoS ONE, 2015):
# In all, about 310,000 compounds went through this assay and about 2,200 (0.71%) showed an effect of 50% or more. The effect is printed as a negative number. Some of the results follow.
# Biological target: human ether-à-go-go-related gene (hERG) potassium channel (human, UniProt Q12809)
# Assay: primary screen, population patch clamp on CHO cells stably expressing hERG
# Chain of human ether-à-go-go-related gene (hERG) potassium channel (Q12809 whole entry, looked up): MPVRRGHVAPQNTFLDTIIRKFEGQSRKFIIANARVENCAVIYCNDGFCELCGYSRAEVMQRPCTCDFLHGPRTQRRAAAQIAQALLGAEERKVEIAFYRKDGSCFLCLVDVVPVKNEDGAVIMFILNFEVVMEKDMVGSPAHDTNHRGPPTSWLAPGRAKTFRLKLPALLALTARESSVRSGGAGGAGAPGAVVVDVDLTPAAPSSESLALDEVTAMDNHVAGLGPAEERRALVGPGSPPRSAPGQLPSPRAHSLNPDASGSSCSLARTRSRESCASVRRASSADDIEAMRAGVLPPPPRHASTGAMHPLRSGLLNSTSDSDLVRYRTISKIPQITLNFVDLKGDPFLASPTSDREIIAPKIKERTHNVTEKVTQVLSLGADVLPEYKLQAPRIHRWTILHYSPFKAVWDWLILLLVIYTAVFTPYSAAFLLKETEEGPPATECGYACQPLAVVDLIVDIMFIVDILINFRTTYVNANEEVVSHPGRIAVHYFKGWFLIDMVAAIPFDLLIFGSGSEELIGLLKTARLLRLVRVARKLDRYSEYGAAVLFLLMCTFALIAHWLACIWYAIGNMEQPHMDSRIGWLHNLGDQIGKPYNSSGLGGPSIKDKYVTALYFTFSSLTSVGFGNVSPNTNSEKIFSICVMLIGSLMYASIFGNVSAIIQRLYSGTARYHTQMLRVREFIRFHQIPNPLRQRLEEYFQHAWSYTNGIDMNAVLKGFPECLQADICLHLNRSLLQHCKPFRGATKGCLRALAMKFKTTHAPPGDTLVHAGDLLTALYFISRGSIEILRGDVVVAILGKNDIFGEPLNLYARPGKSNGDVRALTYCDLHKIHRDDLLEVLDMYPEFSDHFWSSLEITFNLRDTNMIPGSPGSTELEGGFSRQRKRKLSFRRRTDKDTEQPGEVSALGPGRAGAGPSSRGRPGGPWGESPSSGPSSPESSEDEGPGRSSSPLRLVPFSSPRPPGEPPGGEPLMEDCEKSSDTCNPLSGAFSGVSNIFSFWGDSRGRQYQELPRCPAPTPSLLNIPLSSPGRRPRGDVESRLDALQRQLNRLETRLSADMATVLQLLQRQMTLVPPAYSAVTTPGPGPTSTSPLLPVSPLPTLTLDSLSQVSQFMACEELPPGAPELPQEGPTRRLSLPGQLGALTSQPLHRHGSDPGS
row,SMILES,"hERG current change (%, negative = inhibition) at 1uM [%]"
1,O=C(Nc1ccccc1)O/N=C/c1ccccc1Cl,8.41
2,Cn1cnnc1Sc1cc(N2CCNCC2)ccc1[N+](=O)[O-],17.5
3,COCc1cc(N2CCCC2)nc(-c2ccccc2)n1,8.37
4,CCOc1ccccc1C1NC(=O)NC(C)=C1C(=O)OCc1ccco1 (centres unmarked),7.29
5,COc1ccc2nc(NC(=O)C34CC5CC(CC(NC(C)=O)(C5)C3)C4)sc2c1,14.2
6,C=CCn1c(SCC(=O)OCC)nc2cc(C(=O)NCc3ccco3)ccc2c1=O,-9.92
7,COc1cccc(C(=O)Nc2ccc(C3CC3(Cl)Cl)cc2)c1 (centres unmarked),6.67
8,COC(=O)c1ccc(-c2noc(CN(C)Cc3ccncc3C)n2)cc1,-2.71
9,COc1ccc(C(=O)NCC(=O)OCc2cccc(Br)c2)cc1,13.5
10,CC(=O)N1c2c(cc(Br)cc2S(=O)(=O)N2CCN(c3ccccc3F)CC2)CC1C (centres unmarked),11.5
11,CCOc1ccc(NC(=O)C(C)Oc2ccccc2C(=O)Nc2ccc(C)c(Cl)c2)cc1 (centres unmarked),1.97
12,Cc1ccc(S(=O)(=O)N2CCN(C(=O)CSc3nnc(C)c(=O)[nH]3)CC2)cc1,14.5
13,COc1ccc(-c2csc(NC(=O)COC(=O)c3ccco3)n2)cc1,10.5
14,CC(OC(=O)c1cc2sccc2n1C)C(=O)NCCc1ccccc1 (centres unmarked),5.48
15,CCOc1ccc2nc(COC(=O)c3ccco3)c(C(C)=O)[n+]([O-])c2c1,6.45
16,CC1CN(C(=O)CSc2nc(-c3ccc(F)cc3)cs2)CC(C)O1 (centres unmarked),5.61
17,CCC(C)(C)NC(=O)CN(C(=O)c1snc(C(N)=O)c1N)c1ccc(OC)c(OC)c1,8.41
18,CC(C)CCn1c(=O)[nH]c2ccccc21,13.8
19,COc1ccc(NC(=O)/C(C#N)=C/c2ccc(-c3ccc(Cl)c(C(=O)O)c3)o2)cc1,18.3

row,SMILES,"hERG current change (%, negative = inhibition) at 1uM [%]"
1,COc1ccc(C(=O)NNC(=O)CCC(=O)Nc2ccc(C)cc2C)cc1,14.8
2,O=C(Nc1ccccc1F)c1c[nH]c(=O)[nH]c1=O,10.2
3,CC(C)c1nc(Cl)c(C#N)c2c1CSC(C)(C)C2,12.6
4,CC(O)[C@H]1CNCCN1CCc1cc(C(F)(F)F)cc(C(F)(F)F)c1 (some centres unmarked),11.6
5,CCC12CN3CCN(CC(C3)/C1=N\NC(=O)c1ccc(C(C)(C)C)cc1)C2,2.87
6,O=C1N=C(N2CCOCC2)S/C1=C/c1cccs1,-0.965
7,CCN(CC)CCCNC(=O)c1nn(-c2ccc(OC)cc2OC)c(=O)c2ccccc12,8.97
8,O=C(CCc1nnc(-c2ccc3c(c2)OCO3)o1)N(Cc1ccncc1)CC1CCCO1 (centres unmarked),11.7
9,COc1ccc(C(C(=O)NC2CCCCC2)N(C(=O)c2ccccn2)c2cccnc2)cc1 (centres unmarked),14.1
10,CCCc1cc(=O)[nH]c(SCC(=O)Nc2c(C)cccc2C)n1,8.21
11,COc1ccc(N2CCN(Cc3nc4scc(-c5ccccc5)c4c(=O)[nH]3)CC2)cc1,17.6
12,COP(=O)(OC)c1nc(-c2cccc3ccccc23)oc1N1CCOCC1,13
13,Cc1ccccc1C1NC(=O)c2ccccc2O1 (centres unmarked),15.1
14,COc1ccc(-c2cc(-c3n[nH]c(=S)n3-c3ccccc3Cl)[nH]n2)cc1,19
15,COc1ccccc1C(=O)COC(=O)CNS(=O)(=O)c1ccc(NC(C)=O)cc1,6.56
16,O=C(OCn1ncc(Cl)c(Cl)c1=O)c1ccc(F)cc1,-4.02
17,COc1ccc(C=NCCC2(O)CC(C)N(C)CC2C)cc1 (centres unmarked),13.9
18,Cc1cccc(OCC(=O)NNC(=O)C2CCCCC2C(=O)O)c1 (centres unmarked),11.6
19,Cn1c(=O)c2c(nc(NC3CCCCC3)n2CC(O)COc2ccccc2)n(C)c1=O (centres unmarked),8.42

row,SMILES,"hERG current change (%, negative = inhibition) at 1uM [%]"
1,COCCNC(=O)CN(Cc1ccc(Cl)cc1)S(C)(=O)=O,-2.56
2,CCOC(=O)c1cnn2c(C)cc(-c3ccccc3)nc12,2.21
3,COc1ccc2c(Cl)c(C(=O)NN3CCN(C)CC3)sc2c1,3.55
4,COc1ccc(OC)c(/C(C)=N\NC(=O)c2cc3cc(Cl)ccc3n2C)c1,17.5
5,NC(=O)CSCc1c(Cl)cccc1Cl,8.89
6,S=c1[nH]nc(CCc2ccccc2)n1-c1ccc(Cl)cc1,11.7
7,COc1cccc(C2/C(=C(\O)c3ccc4c(c3)OCCO4)C(=O)C(=O)N2CCN(C)C)c1 (centres unmarked),9.07
8,CN(C)CC(C)(C)CNS(=O)(=O)c1ccc(Cl)c(Cl)c1,11.7
9,CC1CCN(CCC(=O)Nc2ccc3c(c2)CCC3)CC1,-1.28
10,COC1=CC=C2[C@H]3Cc4ccc(OC)c5c4[C@@]2(CCN3C)[C@H]1O5.Cl,0.915
11,CCN(CC)S(=O)(=O)c1cccc(C(=O)N[C@H](C(=O)NCc2ccc(Cl)cc2)C(C)C)c1,10.4
12,CSc1ncc(CN2CCc3c([nH]c4ccccc34)C2c2cccc(C)n2)cn1 (centres unmarked),5.15
13,CC1CN(S(=O)(=O)c2csc(C(=O)Nc3ccccc3)c2)CC(C)O1 (centres unmarked),14.6
14,Cc1c(CCC(=O)NCCCN2CCCC2=O)c(=O)oc2cc(O)ccc12,10.3
15,COc1cc(SC)ccc1C(=O)N1CCN(c2ccccc2OC)CC1,8.56
16,Cc1ccc(-n2nc3c(=O)n(C(C)C(=O)NC4CC4)nc(C)c3c2C)cc1 (centres unmarked),12.6
17,CC(c1ccncn1)N(C)C(=O)c1ccc2oc(Cc3ccccc3)nc2c1 (centres unmarked),9.8
18,COc1ccc2c(c1OC)CN(C)CCc1cc3c(cc1C(=O)C2)OCO3,-84
